According to ChEMBL document CHEMBL4888484, “Replenishing the malaria drug discovery pipeline: Screening and hit evaluation of the MMV Hit Generation Library 1 (HGL1) against asexual blood stage Plasmodium falciparum ,using a nano luciferase reporter read-out” (2022):
About 420 (8.8%) of roughly 4,800 compounds showed an effect of 50% or more. This is one part of the list.

Each compound was assayed on Plasmodium falciparum (assay: Confirmatory screen in NF54 nanoGlo assay, in single point, at 2uM, 72h). Conditions: timepoint 72 hour.
Type: functional, Erythrocyte

First: COCc1cc(=O)n(CC(=O)Nc2ccc(OC)cc2)c(N2CCCC2)n1
Second: COc1cccc(Cn2c(=O)c3sccc3n(CC(=O)Nc3ccc(N(C)C)cc3)c2=O)c1
The “% Inhibition” value of the first is lower: -2% for the first, 14% for the second.

First: Cc1ccc(NC(=O)c2nnn(CC(=O)Nc3ccc4c(c3)OCO4)c2C)cc1F
Second: CCn1c(-c2cc(NC(=O)c3ccc4c(c3)OCO4)[nH]n2)cc2ccc(OC)cc21
The “% Inhibition” value of the first is lower: 0% for the first, 31% for the second.

First: Clc1ccc(-c2noc(CN(Cc3cccs3)Cc3cccs3)n2)cc1
Second: COc1ccc([C@@H]2C=C(c3ccc(Cl)cc3)N=C3NC(NC(=O)c4ccccc4OC)=NN32)cc1
The “% Inhibition” value of the first is lower: -4% for the first, 97% for the second.

First: O=C(NCc1ncc[nH]1)C1(Cc2nc3ccccc3[nH]2)CCCC1
Second: O=C(NCC1CCCCC1)c1cn[nH]c1-c1ccccc1
The “% Inhibition” value of the first is lower: -8% for the first, -4% for the second.

First: O=C(CCn1nc(-c2ccc3c(c2)OCO3)ccc1=O)NC1CCCCC1
Second: CN(CCNC(=O)CCc1cn(-c2ccccc2)nc1-c1ccc2c(c1)OCO2)C1CCCCC1
The “% Inhibition” value of the first is lower: -10% for the first, 52% for the second.

Compared with `COc1ccccc1Nc1c(-c2cccs2)nc2ccccn12`, `Cc1nc2c(-c3ccco3)nc(=O)n(CC(=O)Nc3cccc4ccccc34)c2s1` is lower in “% Inhibition” value: -2% for the first, -8% for the second.

Compared with `COCCN1CCCCc2cc(C(=O)NC[C@H]3CCN(CC(C)C)C3)sc21`, `CC(=O)N1CCc2cc(-c3ccc(C(=O)NCC[C@H](C)N4CCCC4)cc3)ccc21` is higher in “% Inhibition” value: -9% for the first, 0% for the second.

First: CC(=O)c1ccc(C(C)(C)C)cc1NC(=O)C(C)C
Second: Cc1nc(C)c(C(=O)N[C@](C)(c2ccc(Br)cc2)C(C)C)o1
The “% Inhibition” value of the first is higher: -2% for the first, -13% for the second.

Compared with `Cc1cc(NC(=O)Nc2ccccc2)c2[nH]c(C(=O)NCCN3CCOCC3)c(-c3ccccc3)c2c1`, `Cc1c(NC(=O)c2ccccc2-c2ccccc2)ccc(N2CCCC2=O)c1NC(=O)c1ccccc1-c1ccccc1` is lower in “% Inhibition” value: -3% for the first, -9% for the second.

Going from `CC(=O)N1C[C@H]2CN(C(=O)Cc3cccc(Cl)c3)CC[C@@]2(c2nc(C)n[nH]2)C1` to `CNC(=O)CNC(=O)c1cccc(Cl)c1`, the “% Inhibition” value rises from -5% to -1%.

Going from `c1ccc(C[C@]2(c3ccccc3)CCNC2)cc1` to `CNc1nc(NCCc2ccccc2)nc2ccccc12`, the “% Inhibition” value rises from 1% to 80%.

First: COc1cccc(N2CCN(C(=O)C3CCN(c4nc5cccnc5n(C)c4=O)CC3)CC2)c1
Second: CCC[C@H](C)c1nc(N2CCN(C(=O)Cc3ccc(OC)cc3)CC2)c2cnn(-c3ccccc3)c2n1
The “% Inhibition” value of the first is lower: -17% for the first, 10% for the second.

Compared with `O=C(COC(=O)c1nccc2ccccc12)Nc1cc(F)ccc1Cl`, `COc1ccc(OCC(=O)Nc2ccc(N3CCn4c(nc5ccccc54)C3)cc2Cl)cc1` is lower in “% Inhibition” value: -1% for the first, -8% for the second.

Going from `Cc1ccc([C@@H]2c3cccn3CCCN2Cc2cccs2)cc1C` to `Cc1ccc2nc(-c3cc4ccccc4o3)cn2c1`, the “% Inhibition” value rises from 10% to 44%.

First: COc1cccc([C@H]2CC(=O)Nc3c2cnn3C)c1
Second: Cc1c(C(=O)Nc2cccc(S(=O)(=O)NC3CC3)c2)cnn1C
The “% Inhibition” value of the first is lower: -8% for the first, -1% for the second.

First: COc1cc(Br)cc(C#N)c1O
Second: COc1cc2c(cc1OC)CN(c1noc(-c3ccccc3)n1)CC2
The “% Inhibition” value of the first is higher: 14% for the first, -5% for the second.

First: Cc1ccc(S(=O)(=O)N2CCN(C(=O)CCn3cncn3)CC2)cc1
Second: Cc1c(S(=O)(=O)N2CCN(C(=O)c3ccc(F)cc3)CC2)cnn1C(F)F
The “% Inhibition” value of the first is lower: -17% for the first, 0% for the second.

First: Cc1ccnc2nc(C(=O)N(CC3CC3)CC(F)(F)F)nn12
Second: c1cn2cnnc2c(N(CC2CC2)CC2CC2)n1
The “% Inhibition” value of the first is higher: -2% for the first, -9% for the second.

Compared with `Cc1cc(OC[C@@H](O)CNC(C)(C)CC(C)(C)C)cc(C)c1Cl`, `CCc1nc(CNc2ccc(C)c(S(=O)(=O)NC3CC3)c2C)n[nH]1` is lower in “% Inhibition” value: 67% for the first, -16% for the second.

First: CC(=O)N[C@H]1CCc2nc(N)sc2C1
Second: Cc1ccccc1NC(=O)Cc1nnc(N)s1
The “% Inhibition” value of the first is higher: 3% for the first, -3% for the second.

First: COC[C@H]1CCCN1C(=O)C[C@@H]1O[C@H](CNC(=O)Nc2ccccc2)[C@@H](O)[C@H]1O
Second: Oc1ccccc1CCN[C@H]1CCc2ccc(F)cc21
The “% Inhibition” value of the first is lower: -6% for the first, 98% for the second.

Compared with `CCC[C@]1(C)NC(=O)N(c2csc(-c3ccccc3)n2)C1=O`, `Cc1ccc(CNc2ccc(S(C)(=O)=O)cc2)c(=O)n1C` is lower in “% Inhibition” value: -3% for the first, -9% for the second.

First: Fc1cccc(F)c1CNC[C@@H]1NCCc2ccccc21
Second: O=S(=O)(N[C@H]1CCc2nnc(-c3ccc(F)cc3)n2C1)c1cccnc1
The “% Inhibition” value of the first is lower: -5% for the first, 1% for the second.

Compared with `CN(C)c1ccc(NC(=O)Cn2cnc3ccc(Cl)cc3c2=O)cc1`, `CCN(CC)c1ccc(NS(=O)(=O)c2ccc(N3C(=O)[C@@H](C)CS3(=O)=O)cc2)cc1` is higher in “% Inhibition” value: -7% for the first, 0% for the second.

Compared with `Cc1nc(CNS(=O)(=O)Cc2ccc(F)c(Cl)c2)sc1C`, `Cc1c(C(=O)NCCc2ccc(Cl)cc2)oc2ccc3c(c12)[C@@H](O)CC(C)(C)O3` is higher in “% Inhibition” value: -1% for the first, 4% for the second.

Compared with `CC(C)CNCc1cccc(Br)c1`, `CC(C)C(NC(=O)COc1ccccc1)C(=O)NCC(c1ccccc1Cl)c1c[nH]c2ccccc12` (centres undefined) is higher in “% Inhibition” value: 7% for the first, 69% for the second.

Going from `Oc1cc2ccccc2cc1-c1nnc(-c2ccccc2)c(-c2ccccc2)n1` to `Cc1ccc(NC(=O)c2c(C)nc3sc(C(=O)NCc4ccccc4)c(N)c3c2-c2ccccc2Cl)c(C)c1`, the “% Inhibition” value rises from -13% to 77%.

`Cc1noc(-c2csc(-c3c[nH]cn3)n2)n1` and `Cc1cccc(Nc2nc(-c3cnc(N4CCN(C)CC4)nc3C)cc(=O)[nH]2)c1` are the same in “% Inhibition” value: -7% for the first, -7% for the second.

Compared with `Cc1cc(C(F)(F)F)nn2cnnc12`, `Cc1cc(-n2c(C)cc(C(=O)Cn3c(C(F)(F)F)ccc(C(N)=O)c3=O)c2C)no1` is higher in “% Inhibition” value: -17% for the first, 25% for the second.

Going from `Cc1ccc(F)cc1S(=O)(=O)N1CC[C@]2(CCN(c3cccnc3)C2)C1` to `O=S(=O)(c1ccc(Cl)s1)N1CCC(N2CCc3sccc3C2)CC1`, the “% Inhibition” value rises from -13% to 44%.

First: O=C(c1cc2ncccn2n1)N1CCc2ccccc2C1
Second: O=C(Nc1ccn(Cc2cccc(Cl)c2)n1)c1nn2cccnc2c1Cl
The “% Inhibition” value of the first is higher: -3% for the first, -10% for the second.

First: COCCN1CCc2c(C)nc3c(-c4ccc(OC)c(OC)c4)cnn3c21
Second: Cc1ccc(N2CCN(c3ncc4c(=O)n(-c5ccc6c(c5)OCO6)c(=O)[nH]c4n3)CC2)cc1
The “% Inhibition” value of the first is higher: 6% for the first, -11% for the second.
